The data scatter; read single values as rough.
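Note: [psi-pin-] Saccharomyces cerevisiae expressing SupN fusions, induced by 100 µM Cu2SO4, selected 7 d at 30 °C without adenine and uracil, scored by deep sequencing of output versus input.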

The nature of one data set: amyloid nucleation score relative to library mode (yeast Sup35 reporter selection) (log enrichment difference); higher = more amyloid nucleation; sequences are the first 22 residues of the Bri2 peptide extended by up to 12 random residues. As to conditions: random library (experiment): 1;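 active = nucleation score significantly above 0 at FDR 0.05; inactive = not significantly above 0 or absent from output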.
Consider EASNCFAIRHFENKFAVETLICKCHCARSVLQLM, for which the amyloid nucleation score entry is “inactive”.

The sequence EASNCFAIRHFENKFAVETLICKCLCPIFPVHPE gave an amyloid nucleation score of 7.36.

Regarding EASNCFAIRHFENKFAVETLICKCMSCQ, the amyloid nucleation score stood at 5.51.

Take EASNCFAIRHFENKFAVETLICKCRFPGHAFVAM: the amyloid nucleation score entry was “inactive”.

Take EASNCFAIRHFENKFAVETLICKCSEGRIISLGV: the amyloid nucleation score result is “inactive”.

As for EASNCFAIRHFENKFAVETLICKCVRYTHFNSVV, the amyloid nucleation score entry is “inactive”.

Regarding EASNCFAIRHFENKFAVETLICKCYTYIQYDSSR, the amyloid nucleation score stood at 1.12.

As to EASNCFAIRHFENKFAVETLICKDRVCSLRHVVR, the amyloid nucleation score entry is “inactive”.

EASNCFAIRHFENKFAVETLICKDVGTCFKDVIE: the amyloid nucleation score entry was “inactive”.

Regarding EASNCFAIRHFENKFAVETLICKECTALASATEW, the amyloid nucleation score result was “inactive”.

In the case of EASNCFAIRHFENKFAVETLICKEGGCQWGPMRR, the amyloid nucleation score entry is “inactive”.

Consider EASNCFAIRHFENKFAVETLICKEQWSESSMIRA, for which the amyloid nucleation score result is “inactive”.

Consider EASNCFAIRHFENKFAVETLICKERQSGRRCIWR, for which the amyloid nucleation score result was “inactive”.

Turning to EASNCFAIRHFENKFAVETLICKEVSSAAQDVGA, the amyloid nucleation score result is “inactive”.

As to EASNCFAIRHFENKFAVETLICKFAKGGNPPAAG, the amyloid nucleation score result is “inactive”.

EASNCFAIRHFENKFAVETLICKFFDLFVRVAGH: the amyloid nucleation score result was “inactive”.

EASNCFAIRHFENKFAVETLICKFGLKLRYIGLV: the amyloid nucleation score result was “inactive”.

Consider EASNCFAIRHFENKFAVETLICKFNSVAVIFKD, for which the amyloid nucleation score result is “inactive”.

As to EASNCFAIRHFENKFAVETLICKFRANLVRGLLG, the amyloid nucleation score result is “inactive”.

Take EASNCFAIRHFENKFAVETLICKFRRWFGLRHVY: the amyloid nucleation score entry was “inactive”.

As for EASNCFAIRHFENKFAVETLICKFVCLLVYKCAI, the amyloid nucleation score is -0.102.

As to EASNCFAIRHFENKFAVETLICKGDCASDSRMEA, the amyloid nucleation score result was “inactive”.

Regarding EASNCFAIRHFENKFAVETLICKGEPRNVGMWCC, the amyloid nucleation score entry is “inactive”.

Turning to EASNCFAIRHFENKFAVETLICKGIGRY, the amyloid nucleation score entry is “inactive”.

On to EASNCFAIRHFENKFAVETLICKGLRVMVYGVVA, for which the amyloid nucleation score entry was “inactive”.

EASNCFAIRHFENKFAVETLICKGMEQDHWSLWV: the amyloid nucleation score result is “inactive”.

Regarding EASNCFAIRHFENKFAVETLICKGRLAYGWMLGS, the amyloid nucleation score entry was “inactive”.

For EASNCFAIRHFENKFAVETLICKGRNILSTKTFG, the amyloid nucleation score entry is “inactive”.

With EASNCFAIRHFENKFAVETLICKGRQC, the amyloid nucleation score result was “inactive”.

On to EASNCFAIRHFENKFAVETLICKGRWDLCVGLGR, for which the amyloid nucleation score stood at 0.864.

With EASNCFAIRHFENKFAVETLICKGTAGWL, the amyloid nucleation score entry is “inactive”.

Staying with this data set, now noted: random library (experiment): 2.
In the case of EASNCFAIRHFENKFAVETLICKCIPCLLTVSSG, the amyloid nucleation score result is “inactive”.

EASNCFAIRHFENKFAVETLICKCLRSKPRVKVA yielded an amyloid nucleation score of 4.23.

With EASNCFAIRHFENKFAVETLICKCMRWGNWDGYG, the amyloid nucleation score was 2.85.

EASNCFAIRHFENKFAVETLICKCSFVYTSQPGN showed an amyloid nucleation score of 6.01.

As to EASNCFAIRHFENKFAVETLICKDFVFILLRGLR, the amyloid nucleation score result is “inactive”.

EASNCFAIRHFENKFAVETLICKDKGPMR: the amyloid nucleation score result is “inactive”.

For the sequence EASNCFAIRHFENKFAVETLICKDLFRQGPNTDL, the amyloid nucleation score was determined as 6.94.

On to EASNCFAIRHFENKFAVETLICKDRVRWSCYWCV, for which the amyloid nucleation score entry is “inactive”.

Regarding EASNCFAIRHFENKFAVETLICKDSSEFSIFERE, the amyloid nucleation score result is “inactive”.

For the sequence EASNCFAIRHFENKFAVETLICKE, the amyloid nucleation score entry is “inactive”.

EASNCFAIRHFENKFAVETLICKEIVYCRWAHQE gave an amyloid nucleation score of 1.18.

As to EASNCFAIRHFENKFAVETLICKETAKYSLYGCF, the amyloid nucleation score result was “inactive”.

In the case of EASNCFAIRHFENKFAVETLICKF, the amyloid nucleation score entry is “inactive”.

The sequence EASNCFAIRHFENKFAVETLICKFGFFCSQVPYF came in with an amyloid nucleation score of 1.43.

In the case of EASNCFAIRHFENKFAVETLICKFGYFVGVYKEQ, the amyloid nucleation score came to 2.46.

EASNCFAIRHFENKFAVETLICKFICEDCDCFSR: the amyloid nucleation score was 6.51.

Regarding EASNCFAIRHFENKFAVETLICKFILKMRMTVVW, the amyloid nucleation score entry was “inactive”.

In the case of EASNCFAIRHFENKFAVETLICKFKGLGSSCVA, the amyloid nucleation score entry was “inactive”.

On to EASNCFAIRHFENKFAVETLICKFKSFYYRSCFG, for which the amyloid nucleation score is -0.157.

EASNCFAIRHFENKFAVETLICKFMICDFECFAT registered an amyloid nucleation score of 5.41.

For the sequence EASNCFAIRHFENKFAVETLICKFNILNSDCPFF, the amyloid nucleation score amounted to 2.43.

For EASNCFAIRHFENKFAVETLICKGITGDGSRLCG, the amyloid nucleation score entry is “inactive”.

With EASNCFAIRHFENKFAVETLICKGKPELLVLGMM, the amyloid nucleation score entry was “inactive”.

Consider EASNCFAIRHFENKFAVETLICKGVAYHLIGKVY, for which the amyloid nucleation score entry is “inactive”.

The same data set, now with this note: random library (experiment): 3.
Take EASNCFAIRHFENKFAVETLICKCHLVCW: the amyloid nucleation score entry was “inactive”.

As to EASNCFAIRHFENKFAVETLICKCKLSRRLRALF, the amyloid nucleation score was determined as 2.41.

Regarding EASNCFAIRHFENKFAVETLICKCTMAAELTCQC, the amyloid nucleation score entry is “inactive”.

For EASNCFAIRHFENKFAVETLICKDGVNVYGKHIG, the amyloid nucleation score result is “inactive”.

For EASNCFAIRHFENKFAVETLICKECLYHLGCQVA, the amyloid nucleation score result is “inactive”.

In the case of EASNCFAIRHFENKFAVETLICKEFVGTSSHGVG, the amyloid nucleation score result is “inactive”.

Turning to EASNCFAIRHFENKFAVETLICKEPGLFANLNQG, the amyloid nucleation score result is “inactive”.

As to EASNCFAIRHFENKFAVETLICKESE, the amyloid nucleation score entry is “inactive”.

With EASNCFAIRHFENKFAVETLICKEYSRSAVGLIK, the amyloid nucleation score result is “inactive”.

As for EASNCFAIRHFENKFAVETLICKFMLSMSVWVIT, the amyloid nucleation score result was “inactive”.

EASNCFAIRHFENKFAVETLICKFRNVARWESQA showed an amyloid nucleation score of 3.11.

For EASNCFAIRHFENKFAVETLICKGGNDWSPQGSE, the amyloid nucleation score entry is “inactive”.

Take EASNCFAIRHFENKFAVETLICKGGTENLLRFIR: the amyloid nucleation score is 0.933.

As to EASNCFAIRHFENKFAVETLICKGKIGFRGLCTC, the amyloid nucleation score entry is “inactive”.

As for EASNCFAIRHFENKFAVETLICKGQVTSMWCMGR, the amyloid nucleation score stood at 3.14.

For EASNCFAIRHFENKFAVETLICKGQYKGIGIYNV, the amyloid nucleation score entry is “inactive”.

Regarding EASNCFAIRHFENKFAVETLICKGSDHQCDQTLL, the amyloid nucleation score entry is “inactive”.

In the case of EASNCFAIRHFENKFAVETLICKGTGTKRDLPGQ, the amyloid nucleation score entry is “inactive”.
